# Source: the supplement of paper PMC10126150
# Values marked as one replicate rest on one cluster of the flow cell; about a third of the high ones do not repeat.
# System: ATP
# Assay: switch fluorescence ratio, 500 uM ATP over buffer (Cy3 cluster intensity, sum of 5 cycles each) (fold (ratio)); higher = stronger signal-on switching upon ATP binding; sequences stand for … in TCGTCGGCAGCGTCAGATGTGTATAAGAGACAGTTTTTTTTTTTTTTTTTTTTTTTTT…TC
# Conditions: aptamer strand: ATP DNA aptamer (quencher-CACCTGGGGGAGTATTGCGGAGGAAGG + anchor), 100 nM annealed; ATP concentration: 500 uM; one replicate
# Outline: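 Imaging in selection buffer was followed by imaging after 15 min with 500 uM ATP at 22 °C, for Cy3-labelled switching-strand clusters annealed to 100 nM quencher-labelled ATP aptamer on a modified Illumina MiSeq flow-cell. Five of these buffer/ATP cycles ran, separated by NaOH stripping and re-annealing. The fluorescence ratio per cluster is summed target-cycle over summed buffer-cycle Cy3 intensity, averaged per switch-domain sequence; clusters outside 100-1000 RFU were removed.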
# 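Also: ATP exposure 15 min at 22 °C before imaging.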
row,Sequence,switch fluorescence ratio
1,TTTCCCCTCC,1.2
2,TTTCCCTAGG,1.2
3,TTTCCCTATG,1
4,TTTCCGATGT,2.11
5,TTTCCGCTT,1.05
6,TTTCCTATTA,0.999
7,TTTCCTCGTC,1.19
8,TTTCCTTATC,1.67
9,TTTCGACCA,1.02
10,TTTCGACGAA,1
11,TTTCGAGGCC,1.1
12,TTTCGAGGCG,1.04
13,TTTCGATAAT,1.01
14,TTTCGATCCG,0.995
15,TTTCGATCCT,1.02
16,TTTCGATGAG,1.03
17,TTTCGCAAAC,2.95
18,TTTCGCATGT,1.15
19,TTTCGCTCTA,1.01
20,TTTCGGCGG,0.989
21,TTTCGGTCTT,0.992
22,TTTCGTAAAG,0.98
23,TTTCGTAACG,1.03
24,TTTCGTCGCC,1.01
25,TTTCGTCGGG,1.06
26,TTTCGTCGTG,1.03

row,Sequence,switch fluorescence ratio
1,TTTCGTTGGA,1.02
2,TTTCTAGGCT,1
3,TTTCTCGAAA,1.09
4,TTTCTCGACT,1.08
5,TTTCTCGGGG,0.97
6,TTTCTCTGGA,1.08
7,TTTCTGCGTA,1.01
8,TTTCTGGCC,1.1
9,TTTCTTACGT,0.975
10,TTTCTTATCT,0.975
11,TTTCTTCATA,1.02
12,TTTCTTGGCA,1.01
13,TTTGAAGA,1.01
14,TTTGAAGTT,0.99
15,TTTGACACAA,1.98
16,TTTGACCGGG,1.02
17,TTTGACCTAA,1.04
18,TTTGACTCAT,1.01
19,TTTGAGAA,1.01
20,TTTGAGAGGG,0.991
21,TTTGAGCC,1.11
22,TTTGAGTCCT,1.03
23,TTTGATCACT,1.05
24,TTTGATCCCT,1.03
25,TTTGCACCTG,0.989
26,TTTGCAGATA,1

row,Sequence,switch fluorescence ratio
1,TTTGCAGATC,1.13
2,TTTGCAGTT,0.936
3,TTTGCATGC,1.01
4,TTTGCCGCTC,1.09
5,TTTGCGATTG,1.02
6,TTTGCGCAAC,1.94
7,TTTGCTACTA,1.07
8,TTTGCTATTG,1.11
9,TTTGCTCACC,1.01
10,TTTGCTCCTT,1
11,TTTGCTTACC,1.05
12,TTTGGAAGTA,0.937
13,TTTGGAATTC,1.01
14,TTTGGAGGAC,1.01
15,TTTGGAGTAG,1
16,TTTGGATGCA,1.06
17,TTTGGCTG,0.953
18,TTTGGGCCGG,0.959
19,TTTGGGCGTT,1.02
20,TTTGGGGCAC,1.03
21,TTTGGGTCAC,1.04
22,TTTGGTCGCC,0.951
23,TTTGTACCTT,1.15
24,TTTGTACGTC,1.07
25,TTTGTAGCGA,1.7
26,TTTGTCAGCG,1.05

row,Sequence,switch fluorescence ratio
1,TTTGTGACAT,1.03
2,TTTGTGAGTG,0.97
3,TTTGTGGCGG,0.942
4,TTTGTTACAT,0.995
5,TTTGTTCCG,1.03
6,TTTGTTGA,0.967
7,TTTGTTGAAT,1
8,TTTTAACACG,1.02
9,TTTTAAG,0.973
10,TTTTAAGC,1.01
11,TTTTACAACA,1.13
12,TTTTACAATG,0.984
13,TTTTAGAAGA,1.04
14,TTTTAGACGG,0.977
15,TTTTAGTACG,1
16,TTTTATCAAC,1.03
17,TTTTATTCA,1
18,TTTTCCATGC,1.05
19,TTTTCCGAGA,0.988
20,TTTTCCGATT,0.96
21,TTTTCGAGAC,0.962
22,TTTTCGTACC,1.08
23,TTTTCTAACG,1.06
24,TTTTCTAGTT,0.98
25,TTTTCTATAG,1.03
26,TTTTCTCTCT,1

row,Sequence,switch fluorescence ratio
1,TTTTCTTACC,1.05
2,TTTTGAAGC,1.02
3,TTTTGATCTC,1.06
4,TTTTGATGT,1.02
5,TTTTGCAGCA,1
6,TTTTGCCGGG,0.947
7,TTTTGCTCTT,0.979
8,TTTTGCTTAC,2.06
9,TTTTGCTTCC,1.93
10,TTTTGGATG,1.02
11,TTTTGGCGTG,0.95
12,TTTTGGTG,1.06
13,TTTTGTACCC,0.959
14,TTTTGTCCGG,1.02
15,TTTTGTGC,1
16,TTTTTAAGT,0.977
17,TTTTTACGCG,1.05
18,TTTTTAGAAC,1.07
19,TTTTTAGG,1.03
20,TTTTTCAGC,1.02
21,TTTTTCCCAC,1.13
22,TTTTTCTCT,0.997
23,TTTTTGCGGA,0.987
24,TTTTTGGCGA,0.993
25,TTTTTGTCTA,0.997
